# Test results taken from PubChem BioAssay AID686978 (National Center for Advancing Translational Sciences (NCATS), 2013).
# In all, about 420,000 compounds went through this assay and about 64,000 (15%) were called active. This list was built around the results that the source calls inconclusive (neither active nor inactive); the mix of calls is not that of the screen. The call rests on the fitted dose curve; in most records, active means well fitted inhibition curve with a large enough effect; inconclusive means small, poorly fitted or top-dose-only effect; inactive means flat fitted curve, though single readings scatter. No potency is given beside an inconclusive call; the fits are too rough.
# Test: qHTS for Inhibitors of human tyrosyl-DNA phosphodiesterase 1 (TDP1): qHTS in cells in absence of CPT; further: nearly all actives have a fitted effect of over 55% in size
# Conditions: DT40 Tdp1-/- hTDP1 cells, no CPT, ATP luminescence, 48 h; activity change, negative = growth inhibition: at 46.2 µM (top of the series) unless noted
# Summary of the method: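 Compound effects on proliferation are scored in DT40 Tdp1-/-;hTDP1 cells in the absence of CPT. ATP levels (CellTiter-Glo luminescence) are recorded after a ≥48 hr, 37 °C incubation.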
# On the % scale 0 is the no-effect control and ±100 the full control effect; potency means the concentration at half of the fitted maximal effect; tags describe the fitted curve by direction and shape.
SMILES,Potency,"activity change, negative = growth inhibition"
O=S(=O)(c1ccc(Cl)c(NC(=S)N/N=C/c2ccc(O)cc2)c1)N1CCOCC1,active: 4.61 µM,
O=C(NCc1ccco1)c1ccc(Cn2c(=O)c3ccccc3n(Cc3ccc(Cl)cc3)c2=O)cc1,"inconclusive [inhibitor, partial curve]",
CCCN(C(=O)COC(=O)C12CCC(=O)N1c1ccccc1S2)c1c(N)n(Cc2ccccc2)c(=O)[nH]c1=O (stereo not given),,inactive: 1.05%
CN1CCC(NC(=O)CCc2ccccc2)CC1,,inactive: 1.46%
N#CC1(NC(=O)CSc2nncn2-c2ccccc2F)CCCC1,,inactive: 3.5%
CCOC(=O)N1CCN(C(=O)C2CCN(S(=O)(=O)N3CCC4(CC3)OCCO4)CC2)CC1,,inactive: 18.6%
Cc1ccc(NC(=O)c2c(C)oc3ccc(O)c(CN4CCCCC4)c23)cc1,"inconclusive [inhibitor, single point]",
CCOC(=O)C1C(=O)C=C(c2ccc(Br)cc2)CC1c1ccco1 (stereo not given),"inconclusive [inhibitor, single point]",
COCCn1c(C)cc(C(=O)COC(=O)c2cccc(O)c2)c1C,"inconclusive [inhibitor, partial curve]",
COc1ccc(C(=O)COC(=O)c2ccc3c(c2)OCO3)c(OC)c1,,inactive: -8.97%
CC(C)Cc1nc2oc3c(NCCCN4CCOCC4)ncnc3c2c2c1CCC2,"inconclusive [inhibitor, single point]",
CCc1nnc(NC(=O)C2=NN(C3CCS(=O)(=O)C3)C(=O)CC2)s1 (stereo not given),,inactive: -3.79%
Nc1nc2ccccc2cc1C(=O)NCc1ccc(Cl)cc1Cl,active: 5.8 µM,
COc1ccc(NC(=O)c2ccc3snnc3c2)cc1,,inconclusive: -34.4% [inhibitor]
O=C(CSc1cccc[n+]1[O-])c1cc2ccccc2o1,"inconclusive [inhibitor, single point]",
O=C(Nc1ccc(S(=O)(=O)N2CCCC2)cc1)c1ccc(Br)o1,"inconclusive [inhibitor, partial curve]",
CCOC(=O)c1c(-c2ccc(F)cc2)csc1NC(=O)CN1C(=O)NC2(CCCCC2C)C1=O (stereo not given),"inconclusive [inhibitor, single point]",
Cc1cc(C)c(/C=C/c2onc(C)c2S(=O)(=O)N2CCC(C(=O)NCC(C)c3ccccc3)CC2)c(C)c1 (stereo not given),active: 14.6 µM,
COc1ccc(-n2nnnc2C(c2cccc3ccccc23)N2CCN(C/C=C/c3ccccc3)CC2)cc1 (stereo not given),active: 8.2 µM,
CCOC(=O)c1ccc2nc(NC(C)=O)sc2c1,"inconclusive [inhibitor, partial curve]",
COc1ccc(C(=O)Nc2ccc(OCc3ccccc3)cc2)cc1[N+](=O)[O-],,inactive: 2.2%
Cc1ccccc1C(=O)N[C@H](C(=O)Nc1ccc(Cl)c(Cl)c1)C(C)C,,inactive: -29.2%
CCn1cc(C(=O)N[C@H](C(=O)NCCO)C(C)C)c(=O)c2cc3c(cc21)OCO3,,inactive: 0.372%
Cc1ccc(Nc2nnc(-c3ccc(C)c(S(=O)(=O)N4CCCCC4)c3)c3ccccc23)cc1,"inconclusive [inhibitor, partial curve]",

SMILES,Potency,"activity change, negative = growth inhibition"
O=C(Nc1ncc(Br)s1)C1CCCN1S(=O)(=O)c1cccc2cccnc12 (stereo not given),"inconclusive [inhibitor, single point]",
CCOC(=O)C(Cc1ccnc2ccccc12)=NO,"inconclusive [inhibitor, single point]",
Cc1ccc(C(CC(=O)NCC2(c3ccccc3)CCCC2)c2ccccc2)c(O)c1 (stereo not given),active: 16.4 µM,
O=C(CCSCc1ccc(Cl)cc1)NC1CCCC1,"inconclusive [inhibitor, single point]",
CCc1nnc(NC(=O)[C@@H](NS(=O)(=O)c2ccc3c(c2)OCCO3)C(C)C)s1,"inconclusive [inhibitor, single point]",
COc1ccc(NC2CCCN(C(=O)c3ccccc3C(F)(F)F)C2)cc1 (stereo not given),"inconclusive [inhibitor, single point]",
COC(=O)c1cn(-c2ccccc2)nc1-c1ccc(OC)cc1,"inconclusive [inhibitor, single point]",
Cn1nc(C(F)(F)F)c(C(=O)Nc2ccc(F)cc2F)c1Sc1cccc(Cl)c1,"inconclusive [inhibitor, single point]",
O=C(CCN1CCCCC1)NCNC(=O)CCN1CCCCC1,,inactive: -5.61%
O=c1oc(/C=C/c2ccc([N+](=O)[O-])s2)nc2ccccc12,"inconclusive [inhibitor, single point]",
COc1ccc(C2CC(c3ccccc3)=NN2C(=O)COC(=O)c2cccnc2Cl)cc1 (stereo not given),"inconclusive [inhibitor, single point]",
CN(C)C(CNC(=O)c1sc2ccccc2c1Cl)c1ccco1 (stereo not given),"inconclusive [inhibitor, partial curve]",
COc1ccccc1N1C(=O)CC(Sc2ccccc2N)C1=O (stereo not given),"inconclusive [inhibitor, partial curve, poor fit]",
O=C(NNc1nc(-c2ccccc2)cs1)c1ccco1,active: 16.4 µM,
CN(CCO)c1nc(N)c2c(N)nc3c(c2c1C#N)CC(=O)N3Cc1cccs1,"inconclusive [inhibitor, single point]",
O=C(CSc1ccc2ccccc2n1)NCCC1=CCCCC1,"inconclusive [inhibitor, single point]",
CC(C)(C)OC(=O)N1CCC(c2c(C(=O)Nc3ccc4c(c3)OCCO4)cnn2-c2ccc(F)cc2)CC1,active: 18.4 µM,
COc1ccc(OC)c(NCc2cccn2-c2nnc(N3CCC(C)CC3)s2)c1,active: 2.59 µM,
O=C(Nc1cccnc1Cl)c1ccc(Cl)c([N+](=O)[O-])c1,"inconclusive [inhibitor, partial curve]",
Cc1ccnc(NCc2cc(C)ccc2O)c1,"inconclusive [inhibitor, single point]",
COc1ccc(N(C(=O)c2snc(C(N)=O)c2N)C(C(=O)NC2CCCC2)c2ccc(F)cc2)c(OC)c1 (stereo not given),"inconclusive [inhibitor, partial curve, poor fit]",
CC(=O)c1cn(CCC(C)C)c(=O)[nH]c1=O,,inactive: 27.5%
O=C(O)C(Cc1ccccc1)n1c(=S)[nH]c2ccccc2c1=O (stereo not given),,inconclusive: -33.4% [inhibitor]
CCN(CC)S(=O)(=O)c1ccc2[nH]c(=O)cc(C(=O)Nc3cccc(C(C)=O)c3)c2c1,"inconclusive [inhibitor, single point]",

SMILES,Potency,"activity change, negative = growth inhibition"
CC1(C)CCCC2(C)C(OCCO)=CC(=O)C=C12 (stereo not given),,inactive: -19%
CCOc1ccc(S(=O)(=O)Nc2ccc(C(=O)N/N=C/c3c(C)nn(-c4ccccc4)c3N3CCCC3)cc2)cc1,"inconclusive [inhibitor, partial curve]",
COc1ccc(C2C(=O)N(C3CCCCCC3)CC(=O)N2CCc2ccccc2)cc1 (stereo not given),"inconclusive [inhibitor, partial curve]",
CCCCC1=CC2=C(c3ccco3)C(=O)C(C)(OC(=O)c3ccc(OC)cc3)C(=O)C2=CN1c1ccccc1 (stereo not given),"inconclusive [inhibitor, single point]",
C=C1C(=O)C23C(O)C1CCC2[C@]12COC3(O)C(O)C1C(C)(C)CC[C@H]2O (stereo not given in full),active: 6.51 µM,
CCN(c1ccc(C)cc1C)S(=O)(=O)c1nnc(NC(=O)C(C)(C)C)s1,"inconclusive [inhibitor, single point]",
CC(C)Cn1c(-c2csc3c2CCCC3)n[nH]c1=S,"inconclusive [inhibitor, single point]",
O=C(NCCc1ccccc1)c1ccc2c(c1)N(Cc1ccccc1)C(=O)c1ccccc1S2=O (stereo not given),"inconclusive [inhibitor, single point]",
CCCc1cc(=O)[nH]c(SCC(=O)Nc2ccc(OCc3ccccc3)cc2)n1,"inconclusive [inhibitor, single point]",
O=C(/C=C/c1ccc([N+](=O)[O-])cc1)Nc1cccc(C(=O)Nc2ccccc2C(=O)O)c1,"inconclusive [inhibitor, single point]",
CC(C)(C)c1ccc(C(=O)Nc2nnc(C3=COCCO3)o2)cc1,active: 16.4 µM,
O=C(CN1CCN(Cc2ccc3c(c2)OCO3)CC1)Nc1cc(S(=O)(=O)N2CCCC2)ccc1Cl,active: 16.4 µM,
CCc1nc2c(OCc3ccc(C(=O)OC)cc3)cccn2c1N(C)C(=O)C(C)C,"inconclusive [inhibitor, single point]",
CC1(C)S/C(=N/N=C/c2ccco2)NC1=O,"inconclusive [inhibitor, single point]",
CCCC1C2C(=O)N(c3cccc(C)c3)C(=O)C2ON1c1ccccc1 (stereo not given),,inactive: 2.48%
O=C(CNC(=O)c1ccco1)NCc1ccc2c(c1)OCO2,,inactive: 3.51%
O=C(Cc1ccccc1)N/N=C/c1ccc([N+](=O)[O-])s1,active: 23.1 µM,
CCCC1=NCCn2cccc21,,inactive: -4.42%
COc1ccc([N+](=O)[O-])cc1N(CC(=O)NCCC1=CCCCC1)S(C)(=O)=O,,inactive: -22%
Cc1ccc(S(=O)(=O)N2CCN(c3ccc([N+](=O)[O-])c4cccnc34)CC2)cc1,"inconclusive [inhibitor, partial curve, poor fit]",
Fc1cccc(Cc2c(-c3ccc(Cl)cc3)nc3c(Cl)cc(C(F)(F)F)cn23)c1,,inactive: -19.6%
C=CCSc1nc(N)c(C#N)c(-c2ccc(C)cc2)c1C#N,"inconclusive [inhibitor, partial curve]",
